Assay results as given in the supplement of paper PMC6089552.
The campaign covered roughly 3,200 compounds. About 300 (9.4%) showed activity. The list shows a part of the results, in another mix than the full data.

Test system: A673/TR/shEF
Assay: cell viability (LOESS-normalised, relative to median of negative controls) (log2 ratio); higher = more viable cells (less compound effect), active = hit call of the paper (over 3 MAD below the median)
Conditions: treatment time: 72 h
Procedure, shortened: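 For three days, A673/TR/shEF Ewing sarcoma cells in 384-well plates (1,500 per well) were treated with library compounds at two or more concentrations or with DMSO controls, after doxycycline had been added or withheld 24 h beforehand to induce EWS-FLI1 shRNA knockdown. Viability was read by CellTiter-Glo luminescence on an Envision reader. The data were LOESS-corrected per plate, divided by the median of negative controls and log2-transformed.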

[1] = 0.103 µM, library screen: screen3, EWS-FLI1 expression: high (no doxycycline)
[2] = 0.103 µM, library screen: screen3, EWS-FLI1 expression: low (doxycycline-induced shRNA knockdown)
[3] = 0.308 µM, library screen: screen3, EWS-FLI1 expression: high (no doxycycline)
[4] = 0.308 µM, library screen: screen3, EWS-FLI1 expression: low (doxycycline-induced shRNA knockdown)
[5] = 0.926 µM, library screen: screen3, EWS-FLI1 expression: high (no doxycycline)
[6] = 0.926 µM, library screen: screen3, EWS-FLI1 expression: low (doxycycline-induced shRNA knockdown)
[7] = 2.8 µM, library screen: screen3, EWS-FLI1 expression: high (no doxycycline)
[8] = 2.8 µM, library screen: screen3, EWS-FLI1 expression: low (doxycycline-induced shRNA knockdown)
[9] = 8.3 µM, library screen: screen3, EWS-FLI1 expression: high (no doxycycline)
[10] = 8.3 µM, library screen: screen3, EWS-FLI1 expression: low (doxycycline-induced shRNA knockdown)
[11] = 25 µM, library screen: screen3, EWS-FLI1 expression: high (no doxycycline)
[12] = 25 µM, library screen: screen3, EWS-FLI1 expression: low (doxycycline-induced shRNA knockdown)
[13] = 0.25 µM, library screen: screen1, EWS-FLI1 expression: high (no doxycycline)
[14] = 0.25 µM, library screen: screen1, EWS-FLI1 expression: low (doxycycline-induced shRNA knockdown)
[15] = 2.5 µM, library screen: screen1, EWS-FLI1 expression: high (no doxycycline)
[16] = 2.5 µM, library screen: screen1, EWS-FLI1 expression: low (doxycycline-induced shRNA knockdown)
[17] = 0.25 µM, library screen: screen2, EWS-FLI1 expression: high (no doxycycline)
[18] = 0.25 µM, library screen: screen2, EWS-FLI1 expression: low (doxycycline-induced shRNA knockdown)
[19] = 2.5 µM, library screen: screen2, EWS-FLI1 expression: high (no doxycycline)
[20] = 2.5 µM, library screen: screen2, EWS-FLI1 expression: low (doxycycline-induced shRNA knockdown)

Measured: cell viability (log2)

C[C@]12CC[C@@H]3c4ccc(O)cc4C[C@@H](CCCCCCCCC[S+]([O-])CCCC(F)(F)C(F)(F)F)[C@H]3[C@@H]1CC[C@@H]2O (some centres undefined)
inactive: [1] 0.0763 | [2] 0.0366 | [3] 0.032 | [4] 0.0664 | [5] 0.206 | [6] 0.0078 | [7] 0.089 | [8] 0.022 | [9] 0.119 | [10] 0.0733 | [11] 0.114 | [12] 0.139

COC(=O)c1c(OC)cc2c(c1C)Oc1c(Cl)c(O)c(Cl)c(C)c1C(=O)O2
inactive: [13] 0.0752 | [14] -0.0599 | [15] 0.0671 | [16] 0.0715

COc1cc(CNC(=O)CCCC/C=C/C(C)C)ccc1O
inactive: [13] 0.143 | [14] 0.0268 | [15] -0.0157 | [16] -0.427

CO/N=C(\C(=O)N[C@@H]1C(=O)N2C(C(=O)O)=C(COC(C)=O)CS[C@H]12)c1csc(N)n1
inactive: [13] 0.0446 | [14] 0.0457 | [17] 0.2 | [18] 0.0913 | [15] 0.131 | [16] 0.159 | [19] -0.0248 | [20] 0.156

C=C1C2CCC3(C)C(c4ccoc4)OC(=O)CC13OC1CC(=O)C(C)(C)C(CC(=O)OC)C12C (centres undefined)
inactive: [13] 0.0862 | [14] 0.067 | [15] 0.0511 | [16] 0.0888

O=C(O)c1c2ccccc2cc2ccccc12
inactive: [13] 0.0833 | [14] 0.174 | [15] 0.112 | [16] 0.125

C=CCCCCCCCCCCCC=CC(O)COC(C)=O (centres undefined)
inactive: [13] -0.0116 | [14] 0.0382 | [15] 0.137 | [16] 0.0541

Cc1cc2cc3c(C)cc(=O)oc3c(C)c2o1
inactive: 0.025 µM, library screen: screen2, EWS-FLI1 expression: high (no doxycycline) 0.0654 | 0.025 µM, library screen: screen2, EWS-FLI1 expression: low (doxycycline-induced shRNA knockdown) 0.107 | [13] 0.0749 | [14] 0.172 | [17] 0.033 | [18] 0.071 | [15] 0.132 | [16] 0.159 | [19] 0.0444 | [20] 0.0462 | 25 µM, library screen: screen2, EWS-FLI1 expression: high (no doxycycline) 0.148 | 25 µM, library screen: screen2, EWS-FLI1 expression: low (doxycycline-induced shRNA knockdown) 0.08

CC(=O)Nc1nnc(S(N)(=O)=O)s1
inactive: [13] 0.0998 | [14] 0.0331 | [17] 0.152 | [18] 0.0614 | [15] 0.127 | [16] 0.164 | [19] 0.0792 | [20] 0.0644

O=C(O)CCC(C(=O)O)N1C(=O)c2ccccc2C1=O (centres undefined)
inactive: [17] 0.0198 | [18] 0.0984 | [19] 0.111 | [20] -0.0225

OC[C@@H](O)[C@@H](O[C@@H]1O[C@H](CO)[C@@H](O)[C@H](O)[C@H]1O)[C@H](O)[C@@H](O)CO
inactive: [13] 0.117 | [14] 0.055 | [15] 0.143 | [16] 0.0198

COc1cc(O)c2c(=O)cc(C)oc2c1CC=C(C)C
inactive: [13] 0.113 | [14] 0.0803 | [15] 0.117 | [16] 0.16

NC(N)=N[C@@H](CCC(=O)O)C(=O)O
inactive: [17] 0.154 | [18] 0.0756 | [19] 0.175 | [20] 0.0169

CCN(CC)CCNC(=O)c1ccc(N)cc1
inactive: [13] 0.0893 | [14] 0.128 | [17] 0.138 | [18] 0.0499 | [15] 0.121 | [16] 0.267 | [19] 0.308 | [20] 0.0657

CCCCCCOc1ccccc1C(N)=O
inactive: [13] 0.124 | [14] 0.088 | [15] 0.0625 | [16] 0.135

OC[C@H]1O[C@@H](n2cnc3c(N[C@H]4CC5CCC4C5)ncnc32)[C@H](O)[C@@H]1O (some centres undefined)
inactive: [17] 0.203 | [18] 0.0126 | [19] 0.145 | [20] 0.0632

CNCC(O)c1ccc(O)c(O)c1 (centres undefined)
inactive: [17] 0.184 | [18] 0.0645 | [19] 0.13 | [20] 0.0673

COc1cc2ccc(=O)oc2c(O)c1O
inactive: [13] 0.0227 | [14] -0.0887 | [15] 0.0666 | [16] 0.0769

O=C1c2c(O)cccc2[C@H]([C@@H]2O[C@H](CO)[C@@H](O)[C@H](O)[C@H]2O)c2cc(CO)cc(O)c21
inactive: [13] -0.0436 | [14] 0.0429 | [15] 0.0652 | [16] 0.172

Nc1ccc(S(=O)(=O)Nc2nccs2)cc1
inactive: [13] 0.085 | [14] 0.101 | [15] 0.113 | [16] 0.106

Cc1ccc(-c2cc(C(F)(F)F)nn2-c2ccc(S(N)(=O)=O)cc2)cc1
inactive: [1] 0.112 | [2] 0.13 | [13] 0.171 | [14] 0.082 | [3] 0.113 | [4] 0.0712 | [5] 0.0884 | [6] 0.0716 | [15] 0.116 | [16] -0.00575 | [7] 0.124 | [8] 0.00169 | [9] 0.103 | [10] 0.0767 | [11] 0.103 | [12] 0.0672
